# Measured values reported in PMC4336329 (PLoS ONE, 2015).
# The whole screen tested about 310,000 compounds, of which about 2,200 (0.71%) showed an effect of 50% or more. The effect is printed as a negative number. This is one part of the list.
# Biological target: human ether-à-go-go-related gene (hERG) potassium channel (human, UniProt Q12809)
# Assay: primary screen, population patch clamp on CHO cells stably expressing hERG
# Sequence of human ether-à-go-go-related gene (hERG) potassium channel (Q12809 whole entry, looked up): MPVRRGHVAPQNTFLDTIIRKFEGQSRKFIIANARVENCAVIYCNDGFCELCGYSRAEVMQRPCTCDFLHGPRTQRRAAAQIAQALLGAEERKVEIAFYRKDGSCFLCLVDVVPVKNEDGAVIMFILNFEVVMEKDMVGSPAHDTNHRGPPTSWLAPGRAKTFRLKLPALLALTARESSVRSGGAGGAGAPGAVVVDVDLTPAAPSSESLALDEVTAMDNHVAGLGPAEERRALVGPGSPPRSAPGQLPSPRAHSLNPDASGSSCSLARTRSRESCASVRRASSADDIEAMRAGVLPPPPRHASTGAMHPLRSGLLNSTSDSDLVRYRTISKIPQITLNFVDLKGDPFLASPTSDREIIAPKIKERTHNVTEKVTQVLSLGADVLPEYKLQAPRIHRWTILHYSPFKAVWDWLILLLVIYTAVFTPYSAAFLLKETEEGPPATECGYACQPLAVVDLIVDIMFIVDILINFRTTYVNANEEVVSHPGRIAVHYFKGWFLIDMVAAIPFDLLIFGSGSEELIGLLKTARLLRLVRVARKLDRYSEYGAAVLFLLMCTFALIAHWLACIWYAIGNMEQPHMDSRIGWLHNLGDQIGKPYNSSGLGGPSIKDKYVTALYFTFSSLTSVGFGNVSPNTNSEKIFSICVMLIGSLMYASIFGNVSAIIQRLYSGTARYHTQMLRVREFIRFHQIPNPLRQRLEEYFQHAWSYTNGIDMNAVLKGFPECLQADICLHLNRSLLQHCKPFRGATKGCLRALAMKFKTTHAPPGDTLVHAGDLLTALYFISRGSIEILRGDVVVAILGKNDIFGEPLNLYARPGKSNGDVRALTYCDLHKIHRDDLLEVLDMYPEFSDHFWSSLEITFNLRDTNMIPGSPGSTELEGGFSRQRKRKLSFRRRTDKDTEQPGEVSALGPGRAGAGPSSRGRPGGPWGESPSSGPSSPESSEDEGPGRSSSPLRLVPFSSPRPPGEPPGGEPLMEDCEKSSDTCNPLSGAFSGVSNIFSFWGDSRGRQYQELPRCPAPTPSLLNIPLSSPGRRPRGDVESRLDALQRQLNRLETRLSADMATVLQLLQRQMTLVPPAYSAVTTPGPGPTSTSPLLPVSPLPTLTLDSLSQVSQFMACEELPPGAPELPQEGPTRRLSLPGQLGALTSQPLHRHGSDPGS
row,Compound,"hERG current change (%, negative = inhibition) at 1uM [%]"
1,COCCN(C(=S)Nc1cccc(C)c1C)C(C)c1ccco1 (stereo not drawn),16.3
2,CCCC(c1nnnn1Cc1ccc(F)cc1)N1CCN(C)CC1 (stereo not drawn),7.54
3,O=C1CN(C(=O)c2c(F)cccc2F)C(c2ccc(F)cc2)c2cc(F)ccc2N1 (stereo not drawn),2.28
4,CCc1nn(C)c(-c2n[nH]c(=S)n2N)c1Cl,6.24
5,CN(C)c1ccc(NC(=O)CSc2nnc(C3CCCCC3)n2N)cc1,15
6,CNc1nc(NCc2ccccc2)c2ccccc2n1.Cl,-27.2
7,COc1ccccc1NC(=O)Cn1c(=O)oc2ccccc21,17
8,Cc1cccc(NC(=O)CN(C2=NC3CS(=O)(=O)CC3S2)c2ccccc2F)c1 (stereo not drawn),18.3
9,Nc1sc2c(c1C(=O)NC1CCS(=O)(=O)C1)CCCC2 (stereo not drawn),18.9
10,O=C(NCc1ccc(F)cc1)c1cc(S(=O)(=O)N2CCCCC2)ccc1N1CCOCC1,-0.311
11,COc1ccccc1NC(=O)CCN1C(=O)C2CC=C(Cl)CC2C1=O (stereo not drawn),6.44
12,Cc1cccc(N2CCN(C(=O)Cc3ccc(-n4c(=O)[nH]c5ccsc5c4=O)cc3)CC2)c1C,-3.57
13,C=CCNC(=O)CN1N=C(c2ccc(C)cc2)CCC1=O,-2.85
14,Cc1ccsc1/C=C1/CN(C)Cc2c1nc1ccccc1c2C(=O)O.Cl,21.8
15,O=S(=O)(c1ccc(Br)cc1)N1CCN(Cc2ccco2)CC1,10.6
16,N#CCSc1nc2ccccc2c(=O)n1CC1CCCC1,18.9
17,CCOC(=O)C1(CC2CCCCO2)CCN(C(=O)NCc2ccccc2)CC1 (stereo not drawn),6.92
18,Cc1ccc(S(=O)(=O)c2ccc(Oc3cccc(C)c3)cc2)cc1,7.07
19,Cc1cc(C)n(CCCNC(=O)c2cc(COc3ccc(C)c(C)c3)on2)n1,-18.8
20,CN1CCN(Cc2nc3c(c(=O)[nH]c(=O)n3C)n2Cc2c(F)cccc2Cl)CC1,4.86

row,Compound,"hERG current change (%, negative = inhibition) at 1uM [%]"
1,O=C(CSCc1ccc([N+](=O)[O-])cc1)N/N=C/c1cccnc1,-11.8
2,Cc1c(NC(=O)C(C)OC(=O)c2c3c(nc4ccccc24)CCC(C)C3)c(=O)n(-c2ccccc2)n1C (stereo not drawn),3.95
3,COc1cccc(CC2(CO)CCN(Cc3cnc(-c4cccc(C)c4)nc3)CC2)c1,13
4,O=C(CSc1nc2ccccc2s1)N1CCOCC1,19.4
5,O=C(CCN1C(=O)/C(=C/c2cccs2)SC1=S)Nc1cccc(O)c1,9.66
6,COc1ccc(CNC(=O)Cn2nc(C(F)(F)F)c3c2CCC3)cc1,4.62
7,CC(NC(=O)CN(c1cccc(C(F)(F)F)c1)S(C)(=O)=O)c1ccccc1 (stereo not drawn),9.7
8,CCn1c(COc2cccc(OC)c2)nnc1SCC(=O)Nc1cc(OC)ccc1OC,6.48
9,COCCN(CCOC)Cc1c(C)[nH]c2ccccc2c1=O,-3.73
10,O=C(CCc1ccccc1)NCCc1cccs1,-7.9
11,C=CCN1C(=O)/C(=C\c2ccc(Cl)cc2)N=C1SCC(=O)NCCC,10.9
12,CC(=O)OC1OCCOC1NC(=S)NCc1ccco1 (stereo not drawn),8.92
13,CCOCCCNC(c1ccccc1)c1ccncc1 (stereo not drawn),15.3
14,Cn1nccc1C(=O)N1CCOCC1,4.19
15,CN(c1ccc(C(=O)NC2CC2)cc1)S(=O)(=O)c1ccccc1,9.54
16,Cc1c(NC(=O)C(C)N2C(=O)NC3(CCC(C)CC3)C2=O)c(=O)n(-c2ccccc2)n1C (stereo not drawn),14.3
17,Oc1ccc(/C=N/Nc2nc(-c3cccnc3)nc3ccccc23)c(O)c1,-4.55
18,CC(CNC(=O)c1ccccc1Cl)NC(=O)c1ccccc1Cl (stereo not drawn),12.3
19,Cc1ccc(NC(=O)CN2C(=O)S/C(=C\c3ccc(OCC(=O)O)c(Br)c3)C2=O)cc1,16.7
20,CC(/C=C/c1ccccc1)=N/NC(=O)CCC(=O)Nc1ccccc1C,14.9

row,Compound,"hERG current change (%, negative = inhibition) at 1uM [%]"
1,CC(Cc1ccccc1)C(=O)Nc1ccc(Br)cc1 (stereo not drawn),7.89
2,Cc1nn(CCC(=O)NNC(=S)Nc2ccccc2)c(C)c1Br,14.4
3,CCc1ccccc1Nc1nc2ccccc2n1C(C)C,10.7
4,O=C(NCC1CC1(Cl)Cl)Nc1ccc(Cl)c(Cl)c1 (stereo not drawn),8.4
5,COc1cc(/C=N\NC(=O)c2ccc(C)nc2)ccc1OC(=O)c1ccco1,-7.6
6,NC(=O)c1c(NC(=O)C2CCCO2)sc2c1CCC2 (stereo not drawn),-7
7,Cc1cccc2cc(=O)[nH]c(C)c12,8.27
8,O=C(NCCc1ccccc1)C1(c2ccccc2)CCCC1,13.4
9,COc1ccc(Cl)c2sc(NC(=O)C3=COCCO3)nc12,11.9
10,CC(NC(=O)c1cccs1)c1ccc2c(c1)OCO2 (stereo not drawn),-1.87
11,CC(C)(SC(=S)N1CCCCCC1)C(=O)O,18.2
12,O=C(Nc1ccccc1)c1ccc2c(c1)OCCCO2,3.4
13,COc1ccccc1CNC(=O)C1CCCN(c2cnccn2)C1 (stereo not drawn),15.8
14,O=C(c1cc2ccccc2o1)N1CCN(Cc2ccc3c(c2)OCO3)CC1,2.51
15,CC(=O)Nc1ccc2c(c1)C(=O)N(C1CCCCC1)C2=O,3.07
16,CN(CCc1cnn(C)c1)C(=O)CCc1nnc(CCCc2ccccc2)o1,6.58
17,Cc1nc(N)c(C#N)c(-c2cccnc2)c1C,1.67
18,Cc1ccc(NS(=O)(=O)c2cccc(C(=O)NNC(=O)c3ccco3)c2)c(C)c1,7.23
19,CCNc1nc(SC(C(C)=O)C(C)=O)nc(N(C)C)n1,13.6
20,O=C(O)CN1CCN(Cc2ccc(F)cc2Cl)C1=O,2.82
